This is one part of the list.
test system: T1, C. trachomatis L2/434/Bu expressing GFP (CTL2-GFP); design: species or system HeLa; C. trachomatis total inclusion area by high-content imaging, normalised to DMSO; details: total inclusion area; 28.5 h, 10 µM; inhibitor
T1 construct: L2/434/Bu GFP intracellular growth in HeLa cells
Outline: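 High-content images of fixed, Hoechst-stained infected cultures supply inclusion area and count (growth) plus nuclei number (viability), complementing bulk GFP/resorufin fluorescence. MIC determination is unchanged from the primary assay.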

Compound | % of control remaining
CC(OC(=O)c1ccc2c(c1)C(=O)N(c1ccc([N+](=O)[O-])cc1)C2=O)C(=O)c1ccccc1 (stereo not drawn) [CBK157061] | 102.347
Cc1ccc(C(=O)N2CCC3(CC2)CC(=O)c2cc(Br)ccc2O3)cc1C [CBK162264] | 87.9721
COc1cccc(C2C(C(=O)c3ccc(C)o3)=C(O)C(=O)N2CCN2CCOCC2)c1 (stereo not drawn) [CBK264899] | 108.56
Cc1ccc(C(=O)NCC(O)c2ccc(F)cc2F)cn1 (stereo not drawn) [CBK297751] | 90.1174
CN(C(=O)CCn1c(=O)oc2cc(Cl)ccc21)C1(C(N)=O)CCCC1 [CBK305493] | 85.3344
CCN(CCn1cccn1)c1nc2nonc2nc1NC1CCCC1 [CBK307589] | 60.3207
CCn1cnc2c1CCC(CN/C(=N/C(=O)c1ccccc1)NC)C2 (stereo not drawn) [CBK010036] | 96.827
OCc1ccc(-n2ncc(-c3ccc(C(F)(F)F)cc3)n2)cc1 [CBK112696] | 82.3687
Cc1nn(C)cc1CN1CCN(CC2(c3ccccc3)CC2)CC1 [CBK282721] | 131.017
COC(=O)c1ccc(NS(=O)(=O)c2ccc(C)c(C(=O)O)c2)c(C)c1 [CBK296684] | 117.161
O=C(/C=C/c1ccc(Cl)cc1Cl)Nc1sc2c(c1C(=O)NCc1cccnc1)CCCC2 [CBK265497] | 76.463
CC(C)CSc1nc(O)cc(=O)n1Cc1ccccc1 [CBK291170] | 63.3428
COc1ccc(COc2nccnc2N2CCCC2)cc1OC [CBK116613] | 93.6362
Cn1ncc2c(NCc3cccc(Cn4cncn4)c3)ncnc21 [CBK304241] | 79.8627
Cc1ccccc1NC1=NC(=O)C(CC(C)C)O1 (stereo not drawn) [CBK074902] | 96.4906
CC1CCCCN1C(=O)CN1C(=O)N2CCN=C2c2ccccc21 (stereo not drawn) [CBK283921] | 103.913
O=C(NCCOc1ccccc1)N1CCCC(CO)C1 (stereo not drawn) [CBK156058] | 99.7394
O=C(O)CCCNc1ncnc2c1oc1ccccc12 [CBK287573] | 122.877
CCCOCC1CCN(C(=O)Nc2ccc(Oc3cccnc3)cc2)C1 (stereo not drawn) [CBK306799] | 51.4902
O=C(O)CCn1c(-c2ccc(F)cc2)cc2cccnc21 [CBK282583] | 110.357
CCc1ccc(C(=O)NCCCN2CCOCC2)cc1 [CBK268144] | 91.0361
COc1ccc(C(C)C)cc1-c1nccnc1NC1CCC(N)CC1 (stereo not drawn) [CBK036703] | 64.532
COCC(=O)N[C@H]1CC(C)(C)[C@@H]2C[C@@](C)(O)CC[C@]12CCC(=O)N1CCCC1 [CBK289043] | 104.019
O=[N+]([O-])c1cccc(/C=C/C=N/c2ccc3c(c2)S(=O)(=O)c2cc(/N=C/C=C/c4cccc([N+](=O)[O-])c4)ccc2-3)c1 [CBK261244] | 113.072
O=C(O)c1cccc(NS(=O)(=O)c2cccc(S(=O)(=O)c3ccc(Cl)c(Cl)c3)c2)c1 [CBK261259] | 109.855
Cc1ccc2nc(/C(C#N)=C/c3ccc(-c4ccc(S(N)(=O)=O)cc4)o3)[nH]c2c1 [CBK266386] | 99.8327

Compound | % of control remaining
CC(=O)c1ccc(-c2cc(C(=O)NCCc3cccnc3)cnc2-c2ccc(F)cc2)s1 [CBK036614] | 59.6919
Fc1cccc(-c2cncc(NCCc3c[nH]c4ccccc34)n2)c1 [CBK065288] | 103.263
Cc1ccc(C2=CCN(CC(=O)Nc3ccc(N(C)C)cc3)CC2)o1 [CBK283604] | 127.585
CC(C)c1ccc(Cc2cnc(NC(=O)c3cc(Br)cs3)s2)cc1 [CBK300503] | 75.1337
COc1cccc2sc(N(Cc3cccnc3)C(=O)c3ccc(S(=O)(=O)N(C)C)cc3)nc12 [CBK294420] | 95.6071
O=C(NCc1c(F)cccc1F)c1ccc2nc[nH]c2c1 [CBK153315] | 89.8413
CC(C)(C)/N=C1/SCC(C)(/C=N\O)S1 (stereo not drawn) [CBK009726] | 97.3654
O=C(O)c1cc(Cl)c2c(c1)[C@@H]1C=CC[C@@H]1[C@H](c1cccc(Br)c1)N2 [CBK077927] | 87.5302
COc1ccc(-c2cc3ncnc(Sc4nnnn4CC4CCCO4)c3s2)cc1 (stereo not drawn) [CBK297157] | 93.3739
O=C1CCC(=O)N1CCOc1nccnc1N1CCN(CC2CCCCC2)CC1 [CBK084306] | 87.1876
CC(=O)OC(Cn1c2ccccc2c2ccccc21)Cn1c2ccccc2c2ccccc21 [CBK262307] | 100.969
O=C(Cn1c(C2CCOCC2)cc2cccnc21)NC1CCCC1 [CBK285157] | 103.765
COc1cccc2c1cc(C(=O)NCCCc1ccccn1)n2C [CBK283283] | 95.8073
COc1ccc(S(=O)(=O)N(C)CC(=O)O)cc1 [CBK287086] | 111.373
Cn1ccnc1CN1CCCC(CCC(=O)Nc2ccccc2F)C1 (stereo not drawn) [CBK307462] | 86.292
CCCC(=O)N1CCCCC1c1nn(C)cc1-c1cc(C)no1 (stereo not drawn) [CBK283407] | 84.6998
C(=C\c1nccnc1OCCn1cccc1)/c1ccccc1 [CBK106884] | 93.0342
Cc1cc(NC(=O)CSc2nc3c(c(C(F)(F)F)n2)CCc2ccccc2-3)n(-c2ccccc2)n1 [CBK266086] | 117.708
COc1cc(NC(=O)N2CCC3(CC2)CC(=O)c2ccc(C)cc2O3)cc(OC)c1 [CBK166521] | 108.586
COc1cccc(C(=O)NCC(C)(C)SCc2ccc(F)cc2)c1 [CBK022322] | 94.3859
CCCc1cc(C(=O)OC)c(NC(=O)C2C3CCC(C3)C2C(=O)O)s1 (stereo not drawn) [CBK057885] | 31.6075
CC(C)Nc1cc(OCc2ccc(F)cc2)ncn1 [CBK115654] | 128.574
Cc1csc(C(Cc2cccs2)NC(=O)CN(C)C)n1 (stereo not drawn) [CBK285124] | 97.9456
O=P(O)(CCc1ccccc1)CN1CCCCC1 [CBK262318] | 78.2371
CN(C(=O)c1cc(O)nc2ccccc12)c1nccs1 [CBK297778] | 68.9132
